{
  "source": "PubChem BioAssay AID493208",
  "about": "(National Center for Advancing Translational Sciences (NCATS), 2011)",
  "note": "Out of some 44,000 compounds screened, about 340 (0.77%) were called active. Not shown: some 5% with an inconclusive outcome. Calls come from the whole dose curve; as a rule, active = well fitted inhibition curve with a large enough effect; inconclusive = small, poorly fitted or top-dose-only effect; inactive = flat fitted curve, though single readings scatter. The list shows a part of the results.",
  "data": [
    {"assay": "Acumen qHTS Assay for Inhibitors of the mTORC1 Signaling Pathway in MEF (Tsc2-/-, p53-/-) Cells: Sytravon;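 note: plate controls were DMSO for no effect and rapamycin for full effect; nearly all actives have a fitted effect of over 50% in size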", "conditions": "phospho-rpS6 immunofluorescence/PI, 24 h; series mostly up to 38.3 µM; activity change, negative = inhibition: at the top concentration", "procedure,_shortened": "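Cell-based qHTS: Tsc2-/- p53-/- MEF, 24 h cpd, 37 °C; fix/perm, anti-phospho-S6 Alexa-488 + PI; Acumen 488 nm scan; pS6/PI ratio, % positive cells; rapamycin 7.5 nM = inhibition ref; PI count = viability.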", "values": [
      {"smiles": "CCOc1ccc(NC(=O)Cn2cc(C(=O)c3ccco3)c3ccccc32)cc1", "activity change, negative = inhibition": "inactive: 2.04%"},
      {"smiles": "CC(C)n1c(=N)c(C(=O)NCc2ccccc2)cc2c(=O)n3ccccc3nc21", "activity change, negative = inhibition": "inactive: -22.8%"},
      {"smiles": "COc1cc(NC(=O)c2cc(S(=O)(=O)N3CCc4ccccc43)cn2C)cc(OC)c1OC", "activity change, negative = inhibition": "inactive: -4.18%"},
      {"smiles": "Cc1ccc(C)c(CN2C(=O)c3ccccc3S(=O)(=O)c3ccc(C(=O)N4CCCCC4)cc32)c1", "activity change, negative = inhibition": "inactive: -11.2%"},
      {"smiles": "COc1ccc(OC)c(NC(=O)c2cnn(-c3ccc(C)cc3)c2C2CCNCC2)c1", "activity change, negative = inhibition": "inactive: -11.4%"},
      {"smiles": "CCc1ccccc1N(C)C(=O)c1cc2c(=O)oc3ccccc3c2s1", "activity change, negative = inhibition": "inactive: 2.34%"},
      {"smiles": "CC(=O)c1cccc(NC(=O)c2noc3c2CCCC3)c1", "activity change, negative = inhibition": "inactive: 1.09%"},
      {"smiles": "CC(C)CC(=O)Nc1c(C(=O)N2CCN(c3ccccc3)CC2)oc2ccccc12", "activity change, negative = inhibition": "inactive: -1.09%"},
      {"smiles": "O=C(COc1ccccc1[N+](=O)[O-])N(Cc1ccco1)c1ccccn1", "activity change, negative = inhibition": "inactive: -1.61%"},
      {"smiles": "COc1cc2c(=O)n(CCc3ccccc3)c(=O)n(CC(=O)Nc3ccccc3)c2cc1OC", "activity change, negative = inhibition": "inactive: 2.25%"},
      {"smiles": "O=C(C1CCC1)N1CCc2cc(S(=O)(=O)NCc3ccc(F)cc3)ccc21", "activity change, negative = inhibition": "inactive: 1.24%"},
      {"smiles": "COc1ccc(C)cc1NC(=O)N1CCCn2nc(C)cc21", "activity change, negative = inhibition": "inactive: 4.16%"},
      {"smiles": "COc1ccc(OC)c(NC(=O)/C=C/c2ccc(C)o2)c1", "activity change, negative = inhibition": "inactive: 10.7%"},
      {"smiles": "CCOc1ccccc1NC(=O)Cn1c(=O)n(-c2cccc(C)c2)c(=O)c2c1c1cc(OC)ccc1n2C", "activity change, negative = inhibition": "inactive: -8.34%"},
      {"smiles": "COc1ccc(C(=O)Cn2c(=O)c(-c3cc(C)ccc3NC(C)=O)nc3ccccc32)cc1", "activity change, negative = inhibition": "inactive: 4.21%"},
      {"smiles": "CC(=O)c1cc2c(cc1N/C(=N/S(=O)(=O)c1ccc(Br)cc1)c1ccccc1)OCO2", "activity change, negative = inhibition": "inactive: -2.13%"},
      {"smiles": "O=C(Cn1c(=O)n(CC2CCC(C(=O)NCCc3ccccc3)CC2)c(=O)c2ccccc21)Nc1cccc(F)c1", "note": "(stereo unspecified)", "activity change, negative = inhibition": "inactive: -0.761%"},
      {"smiles": "COc1ccc(C2C=C(c3ccccc3)Nc3nc(NS(=O)(=O)c4ccc(Cl)cc4)nn32)cc1", "note": "(stereo unspecified)", "activity change, negative = inhibition": "inactive: -0.258%"},
      {"smiles": "COC(=O)c1ccccc1NC(=O)N1CCc2c(sc3c2CCCC3)C1c1ccc(F)cc1", "note": "(stereo unspecified)", "activity change, negative = inhibition": "inactive: 0%"},
      {"smiles": "Cc1ccccc1Cn1c(CN2CCCC(C)C2)nc2c1c(=O)n(C)c(=O)n2C", "note": "(stereo unspecified)", "activity change, negative = inhibition": "inactive: -8.44%"},
      {"smiles": "CCOc1ccc(C(=O)c2cn(CC(=O)Nc3ccc(Cl)cc3)c3cc4c(cc3c2=O)OCCO4)cc1", "activity change, negative = inhibition": "inactive: -4.23%"},
      {"smiles": "CCc1cccc(C)c1NC(=O)c1cccc(C(=O)Nc2c(C)cccc2CC)c1", "activity change, negative = inhibition": "inactive: -3.84%"},
      {"smiles": "COc1ccc(Cl)cc1NC(=O)c1cc2c(s1)-c1ccccc1OC2", "activity change, negative = inhibition": "inactive: -6.23%"},
      {"smiles": "CCc1ccc(OC(C)C(=O)Nc2c(C(=O)c3ccccc3)oc3ccccc23)cc1", "note": "(stereo unspecified)", "activity change, negative = inhibition": "inactive: 0.911%"},
      {"smiles": "COCCNC(=O)CCc1nc2cccnc2n1Cc1ccc(OC)cc1", "activity change, negative = inhibition": "inactive: -15.3%"},
      {"smiles": "CS(=O)(=O)N(CC(=O)NCCSc1ccccc1)c1cc(C(F)(F)F)ccc1Cl", "activity change, negative = inhibition": "inactive: 1.49%"}
    ]}
  ]
}
